Laboratory results from the supplement of paper PMC3334620.
Over roughly 33,000 sequences, “E-score (-0.5 to 0.5)” has its median near -0.013; the highest 2% begin near 0.3. Some of the results follow.

These sequences were tested against T1, Msn1 (UniProt P22148) (assay: PBM E-score (8-mer binding enrichment) (E-score (-0.5 to 0.5)); higher = stronger / more preferred TF binding; most listed sequences are background and not binding sites). Conditions: protein concentration: 200 nM; construct: GST-full length.
T1 sequence: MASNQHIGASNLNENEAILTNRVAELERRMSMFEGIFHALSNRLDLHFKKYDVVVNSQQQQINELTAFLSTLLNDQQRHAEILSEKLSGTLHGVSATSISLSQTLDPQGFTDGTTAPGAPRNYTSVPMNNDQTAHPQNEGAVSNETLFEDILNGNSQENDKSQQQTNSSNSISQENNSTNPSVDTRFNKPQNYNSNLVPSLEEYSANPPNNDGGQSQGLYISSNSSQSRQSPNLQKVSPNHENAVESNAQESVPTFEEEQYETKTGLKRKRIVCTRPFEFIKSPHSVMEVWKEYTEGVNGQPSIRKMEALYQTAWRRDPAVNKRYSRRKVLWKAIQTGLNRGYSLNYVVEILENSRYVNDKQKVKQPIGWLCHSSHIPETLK
Outline: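 Yeast transcription factors, full-length or as DNA-binding domains, were expressed with a GST tag using PURExpress in vitro transcription/translation. At about 100-200 nM they were applied to universal all-10-mer Agilent arrays, double-stranded by primer extension on fresh or once-stripped slides. Fluorescent anti-GST detected bound protein, and masliner normalised the scans. E-scores for ungapped eight-base words, pooled with reverse complements, came from the Universal PBM Analysis Suite.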

Sequence | PBM E-score
AATGGTCT | -0.108
AGCATGAA | -0.0305
GGGCAAGA | 0.21
ACTCAGCG | -0.0293
GCGTACAA | 0.0505
CACGGCTC | -0.0257
ACTATGCG | -0.0367
ACGCATCC | -0.157
CAGCGTGG | -0.0889
CCTTTTGA | 0.183
ATTTGGTC | 0.124
ACATAACC | 0.0931
AACCAACT | -0.00361
GTAGAGAC | -0.083
CACTACCA | 0.0209
AAGTGTGC | 0.0122
GCTGTTAC | -0.109
GGTCTAAC | -0.0445
GCCTGGTA | -0.0759
ACCACACG | -0.164
CATGGAGG | -0.156
CTAGCGCC | -0.234
CGGCTATA | 0.0929
AACCCCTT | -0.282
TCGATTAA | 0.186

Sequence | PBM E-score
AGTGCGCC | -0.0471
CAAGCACC | -0.209
CTTACCTA | -0.116
GACTCGAC | 0.00452
CTCCAAAA | -0.0226
GCCGAGAA | 0.0461
AGTTTCTA | -0.0256
CTTTCAGC | -0.0883
TAGTGGCA | -0.158
AAAGGCAG | 0.0441
TCAACGGA | -0.0103
CAACGATC | -0.102
ATCATCGA | 0.015
ATAGAACG | 0.127
TACGCAAA | -0.175
AGTCGAGA | 0.0774
AATTAGAC | 0.241
ATTGGTCA | 0.0406
AGGAGCGA | 0.00946
ATCCGGCA | -0.0839
ATGACTAG | 0.157
AGATATCG | -0.22
AGGGACCG | -0.215
CGACGGGA | 0.0248
AGTAGTAA | 0.0664

Sequence | PBM E-score
CTCTTGAA | -0.127
CACTGTGA | -0.0912
AGCTGATC | 0.00591
GCGATTCA | -0.0661
CTCTCGAC | -0.21
GCCCTCTA | -0.279
AGCATAAT | 0.036
ACGCTCAG | -0.142
GCAGGGCA | 0.0279
AAAACATG | 0.0405
CAGTTACA | 0.0424
GAATCCCC | -0.101
CACATCCG | 0.149
GCAAGAGC | -0.0224
CGATGACG | -0.158
GCCAGTCA | -0.117
ACTCAGTC | -0.168
CGGTACAG | 0.054
CCGATCTC | -0.0555
AGTGAATC | -0.0274
CGGTTAAG | 0.0511
AAGGACCT | 0.0694
CGACTAAC | 0.138
GAACCCCA | -0.208
CCCATTCA | -0.0619

Sequence | PBM E-score
ACTTGAAA | 0.185
ACCGATGA | -0.0281
ATACAACC | 0.103
CGTTTGGC | -0.0774
ATGGCCGC | -0.176
AGGTTGTG | -0.0559
CACGTAGA | 0.0124
CCGGGTCA | -0.161
CAGAAAGA | -0.00119
CACATTTA | 0.15
TGAAATCA | 0.0301
CCTACCAG | -0.277
GCATACTA | -0.0617
CCTAGCTA | -0.181
AACAAGGA | 0.156
CCTGGGCG | -0.243
GGAGCTCC | -0.202
ATTTATCG | 0.188
CGAGTGCC | -0.099
ACCGTTAA | 0.0724
GAGTTTGA | 0.113
ACCTGGCC | -0.0546
CATATACG | 0.116
ACGGAAAC | 0.0387
CGTTCATA | -0.00678

Sequence | PBM E-score
CAACCTGA | -0.18
CACGATAA | 0.107
CATGCCGC | 0.209
ACATCTTC | 0.166
AAGAGGCT | -0.242
GGTCGGCA | -0.115
GATCGCGC | -0.0341
TCCCTAGA | 0.101
AACCGTGG | -0.198
ACCCAGTA | -0.153
CCGCGCGC | 0.0959
ACGAACGG | 0.118
AATAGAGA | -0.00173
CAAGCGAG | 0.0504
CATCCCCA | -0.264
GCATAGAA | 0.00819
CATTAATA | 0.248
ACGTCTCG | 0.167
GTGGAGTA | 0.0228
ATGTGCAC | -0.0881
AGAGTCCC | -0.189
AAGCAGCT | -0.0124
CTGCTGCC | -0.23
GGTAGACA | 0.0726
ATCTCTTA | 0.0525

Sequence | PBM E-score
AGGTGAAG | -0.0722
TGTCGACA | 0.113
GTACATAA | 0.306
ACTGCAGC | -0.228
ATCGGCAA | -0.0118
ACCGCCAC | -0.117
AAGGAATT | 0.141
GCCGCCCC | -0.239
ATTTACAG | 0.0279
AAGTGTCT | 0.257
AAAGAGTC | -0.0782
GCACCGCA | -0.212
ACAGATTC | 0.169
CCAGCCAG | -0.312
AGATATTA | 0.0256
TACCTTCA | -0.0437
GCGATCCA | -0.171
AGACGCCA | -0.148
CCGCTTAA | -0.0375
ACCTGGGG | -0.332
CGACGCCC | -0.093
TAAGAGTA | 0.0785
CCAGAGGC | -0.286
CTGCATTA | -0.203
CATGATCA | 0.15

Sequence | PBM E-score
AGGCTATA | -0.0785
GGACTGGA | 0.0295
GATCAAGA | 0.112
AACGCGGG | 0.104
AATGAAAC | 0.153
CACCGAGG | -0.142
CATCAGCC | -0.177
ACCTCCTG | -0.169
AAACTCGG | 0.208
ACCCTGGG | -0.212
ACAAATTA | 0.357
ATGGGTCA | 0.0193
AGTGCATA | -0.146
ATCTCCCC | -0.331
GGTTCGAC | -0.0812
CAACCATC | -0.177
ACTACGCA | -0.18
AACGGGCC | -0.177
CAGAGAGC | -0.315
TGACACAA | 0.183
CCATCCCA | -0.179
AATGTGTC | 0.3
CCCTTAGA | -0.184
CGTTCTCA | -0.113
AGAATTAC | 0.115

Sequence | PBM E-score
CTCACACA | -0.0331
GAATGTCA | 0.373
CCAGACCA | -0.105
GCTAGAAA | 0.165
TAGCCATA | -0.0762
ATGGGAGC | -0.106
ACGCTAGC | -0.0853
CTATGCAC | -0.278
GACACACC | 0.235
TGAGCCAA | -0.0952
CAACTGGA | -0.128
AAGAATTG | 0.102
GATGCGCC | 0.0596
CGGAAAAG | 0.184
AAGAGAGT | -0.107
AACCAGCA | -0.14
CCACAACC | -0.0582
CTAGAGCC | -0.127
ATTTTTGC | 0.208
GCGTGAGA | -0.00665
AACCTTTC | -0.185
ATTGTCGG | 0.318
CATCCTGC | -0.0899
GCGATTAC | -0.132
CCACTCAC | -0.191

Sequence | PBM E-score
GACCGCGA | 0.027
CACTCTCC | -0.0252
CCTTAATA | 0.0882
ACTGGTGA | -0.171
CCCCCCCA | -0.238
GATGCATA | -0.0415
GGTACAGA | 0.133
CAAGATAG | -0.221
ATGAGGAA | 0.0144
AAGCGCGG | 0.00342
CCAAGCGA | -0.119
GCAAGCCC | -0.176
ATAGCAAA | 0.113
CATGCGGC | -0.0514
GTATGAGA | 0.095
CATGGTCC | -0.0489
ATACTGCG | -0.167
AGTCACAA | 0.114
CCCGACAC | -0.0956
